Measurements published in the RNAGym collection of RNA variant scans (doi:10.1101/gad.245936.114).
Variants at the floor of the assay are shown more often than the library holds them.

B1: tRNA (parent)
chain: CUCUCGGUAGCCAAGUUGGUUUAAGGCGCAAGACUUUAAUUUAUCACUACGAAAUCUUGAGAUCGGGCGUUCGACUCGCCCCCGGGAGAUUUUUUCCUCGAGCAA

Variants of: B1
Test: nonsense suppression (GFP-seq) (ratio to wild type); higher = more function; SUP4oc tRNA, yeast GFP reporter sort-seq
Summary of the method: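 Nonsense suppression (GFPSEQ) is the median GFP/RFP ratio of each sorting bin, weighted by the variant's estimated share of cells in that bin and expressed relative to the unmutated parent tRNA. Yeast strains carried genome-integrated variants of an ochre-suppressor tRNA from a library with ~3% random mutations, plus a galactose-driven GFP ochre reporter and RFP, and were grown in raffinose/galactose medium containing 80 mg/L adenine. Cells were sorted into GFP/RFP bins, each bin was Illumina-sequenced (phred ≥30), and variants were kept only with ≥100 reads and ≥30 cells.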

G15C U21C G61A and G15C U22G A23C cannot be ordered by nonsense suppression: no more than 0.026 for the first, no more than 0.026 for the second.

G15C U35A G69U and G15C U35G C81G cannot be ordered by nonsense suppression: no more than 0.026 for the first, no more than 0.026 for the second.

G15C U57A G86A and G15C U57C cannot be ordered by nonsense suppression: no more than 0.026 for the first, no more than 0.026 for the second.

G15C U58G and G15C U58G G69A cannot be ordered by nonsense suppression: no more than 0.026 for the first, no more than 0.026 for the second.

G15C U71A G78A and G15C U76A cannot be ordered by nonsense suppression: no more than 0.026 for the first, no more than 0.026 for the second.

G15C U76C and G15C U76G cannot be ordered by nonsense suppression: no more than 0.026 for the first, no more than 0.026 for the second.

G15U A23C A74C and G15U A23C C68G G69C U76G G78A C80U G85C cannot be ordered by nonsense suppression: no more than 0.026 for the first, no more than 0.026 for the second.

G15U A23U A30C G65C G73U U76G and G15U A23U A31C cannot be ordered by nonsense suppression: no more than 0.026 for the first, no more than 0.026 for the second.

G15U A23U U57G G69U C82U and G15U A24G C64U cannot be ordered by nonsense suppression: no more than 0.026 for the first, no more than 0.026 for the second.

G15U A24G G59C and G15U A24U G86C cannot be ordered by nonsense suppression: no more than 0.026 for the first, no more than 0.026 for the second.

G15U A30C G78A and G15U A30C G78C cannot be ordered by nonsense suppression: no more than 0.026 for the first, no more than 0.026 for the second.

G15U A30G U63G and G15U A30G U70A U71G A89C cannot be ordered by nonsense suppression: no more than 0.026 for the first, no more than 0.026 for the second.

G15U A30U and G15U A31C A33U cannot be ordered by nonsense suppression: no more than 0.026 for the first, no more than 0.026 for the second.

G15U A54C and G15U A54C C56A G66A G84A cannot be ordered by nonsense suppression: no more than 0.026 for the first, no more than 0.026 for the second.

G15U A60U C81A and G15U A62G cannot be ordered by nonsense suppression: no more than 0.026 for the first, no more than 0.026 for the second.

G15U A62U G65C and G15U C27G C77G cannot be ordered by nonsense suppression: no more than 0.026 for the first, no more than 0.026 for the second.

G15U C27U G88C and G15U C29A U58G G65C cannot be ordered by nonsense suppression: no more than 0.026 for the first, no more than 0.026 for the second.

G15U C34A and G15U C34G G67C A74G cannot be ordered by nonsense suppression: no more than 0.026 for the first, no more than 0.026 for the second.

G15U C34G U63C and G15U C56A G61C cannot be ordered by nonsense suppression: no more than 0.026 for the first, no more than 0.026 for the second.

G15U C64G A89U and G15U C68G cannot be ordered by nonsense suppression: no more than 0.026 for the first, no more than 0.026 for the second.

G15U C68U G78C C82G G84A and G15U C72A G78A cannot be ordered by nonsense suppression: no more than 0.026 for the first, no more than 0.026 for the second.

G15U C80G and G15U G18A U58C G85U cannot be ordered by nonsense suppression: no more than 0.026 for the first, no more than 0.026 for the second.

G15U G18C G19A G86C and G15U G18U A62G cannot be ordered by nonsense suppression: no more than 0.026 for the first, no more than 0.026 for the second.

G15U G19A A54U A62G C79A and G15U G25C C29U G73A cannot be ordered by nonsense suppression: no more than 0.026 for the first, no more than 0.026 for the second.

G15U G25U C34A and G15U G26A C56U cannot be ordered by nonsense suppression: no more than 0.026 for the first, no more than 0.026 for the second.

G15U G26A U57A G86C and G15U G26U G65C cannot be ordered by nonsense suppression: no more than 0.026 for the first, no more than 0.026 for the second.

G15U G28C C34A G61A G73C U76C C77G and G15U G32A U55A G88U A89U cannot be ordered by nonsense suppression: no more than 0.026 for the first, no more than 0.026 for the second.

G15U G32C and G15U G61A C75A cannot be ordered by nonsense suppression: no more than 0.026 for the first, no more than 0.026 for the second.

G15U G61U and G15U G66A cannot be ordered by nonsense suppression: no more than 0.026 for the first, no more than 0.026 for the second.

G15U G66C and G15U G67C C68A cannot be ordered by nonsense suppression: no more than 0.026 for the first, no more than 0.026 for the second.

G15U G67C G73U and G15U G67U cannot be ordered by nonsense suppression: no more than 0.026 for the first, no more than 0.026 for the second.

G15U G69C C75G and G15U G84C cannot be ordered by nonsense suppression: no more than 0.026 for the first, no more than 0.026 for the second.

G15U G85C and G15U G88C cannot be ordered by nonsense suppression: no more than 0.026 for the first, no more than 0.026 for the second.

G15U U16A G59C G66C U70A C82G and G15U U16A U17G U57C U63G C64G G67U G73U cannot be ordered by nonsense suppression: no more than 0.026 for the first, no more than 0.026 for the second.

G15U U16G and G15U U17A G28U C29G U57A cannot be ordered by nonsense suppression: no more than 0.026 for the first, no more than 0.026 for the second.

G15U U17A U20A A31G G84C G86A and G15U U17A U70A G84C G88U cannot be ordered by nonsense suppression: no more than 0.026 for the first, no more than 0.026 for the second.

G15U U17A U76A C83A and G15U U20A G32C cannot be ordered by nonsense suppression: no more than 0.026 for the first, no more than 0.026 for the second.

First: G15U U20C
Second: G15U U20G C79G C80A
The nonsense suppression of the first is higher: 0.0275 for the first, no more than 0.026 for the second.

G15U U20G U63G G86A and G15U U21G cannot be ordered by nonsense suppression: no more than 0.026 for the first, no more than 0.026 for the second.

G15U U22A C29G G67A U70C and G15U U22C G32A A89C cannot be ordered by nonsense suppression: no more than 0.026 for the first, no more than 0.026 for the second.

G15U U22G C34A A62C G65A U70A and G15U U35A U63C C68A cannot be ordered by nonsense suppression: no more than 0.026 for the first, no more than 0.026 for the second.

G15U U35G G73C and G15U U55A cannot be ordered by nonsense suppression: no more than 0.026 for the first, no more than 0.026 for the second.
